Where “and” joins values, the source holds several entries; their conditions need not be identical. Equal entries are not always repeated. Out of some 71,000 compounds screened, about 1,800 (2.5%) were called active. The shares of active, inactive and inconclusive entries below differ from those in the screen. Calls come from the whole dose curve; as a rule, active = well fitted activation curve with a large enough effect in the signal ratio, with a control signal flat (not every such curve was filed as active); inconclusive = small, poorly fitted or top-dose-only effect, or effect the other way, or a change in a side signal; inactive = flat fitted curve, though single readings scatter; the % refers to the signal ratio. Potencies of inconclusive entries are doubtful fits and often do not repeat.
Assay: Cell signaling CRE-BLA (Fsk stim); for activity change, negative = inhibition: % of control where 0% means no effect
Details: CHO CRE-bla reporter (cAMP response element driving beta-lactamase), forskolin EC10, beta-lactamase ratio; activity change, negative = inhibition: at 38.2 µM (top of the series) unless noted
Procedure, shortened: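 Titrated compounds plus EC10 NKH 477 on CHO CRE-bla cells, 3 h, 37 °C. CCF4, 2 h RT. Ratio 460/530 nm → AC50.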
Potency is the fitted concentration of half-maximal effect; tags give direction and shape of the fitted curve.

Question: Which activity change, negative = inhibition does the source give for COC(=O)COc1nc(C)c2c(c1C#N)CC(C)(C)OC2 here?
Answer: inconclusive: 14.7%

Question: For O=C(CC(c1ccccc1)c1cc(Br)ccc1O)NCc1ccco1 (stereo unspecified), which activity change, negative = inhibition is on record?
Answer: inconclusive: -19.4%

Question: Which Potency does the source give for CN(C)c1ncc2nc(CCc3ccccc3)c(=O)n(CCC#N)c2n1 here?
Answer: active: 3.98 µM

Question: With Cc1cccc(N2CCN(c3cc(C)nc4nnnn34)CC2C)c1 (stereo unspecified) as the compound, how does the activity change, negative = inhibition read?
Answer: inactive

Question: Which Potency does the source give for Cn1cc(-c2nc3cnc(Oc4cccc(Cl)c4)nc3n(C3CC3)c2=O)c2ccccc21 here?
Answer: active: 15.8 µM

Question: With CC(=O)OCC(=O)[C@@]12OC(C)(C)O[C@@H]1C[C@H]1[C@H]3C[C@H](F)C4=CC(=O)C=C[C@@]4(C)[C@]3(F)[C@H](O)C[C@@]12C as the compound, how does the activity change, negative = inhibition read?
Answer: inactive

Question: Which activity change, negative = inhibition does the source give for CC(C)NC[C@H](O)c1ccc(O)c(O)c1 here?
Answer: inconclusive: -7.32% and inconclusive: -1.89%

Question: With CCn1c(Cc2ccccc2)nnc1SCC(=O)Nc1ccc(S(N)(=O)=O)cc1 as the compound, how does the activity change, negative = inhibition read?
Answer: inconclusive: -4.71%

Question: Which activity change, negative = inhibition does the source give for O=C(NC1CCCCC1)C(c1ccccc1)N(Cc1ccco1)C(=O)Cn1cnc2ccccc21 (stereo unspecified) here?
Answer: inconclusive: -13.5%

Question: Which activity change, negative = inhibition does the source give for COc1ccc(CNc2cc(-c3ccccc3Cl)ncn2)c(OC)c1 here?
Answer: inconclusive: 28.6%

Question: Which activity change, negative = inhibition does the source give for O=C(COc1ncnc2ccccc12)NC1CCS(=O)(=O)C1 (stereo unspecified) here?
Answer: inconclusive: -17.6%

Question: With COCCCNC(=O)C1CCN(S(=O)(=O)c2c(C)noc2/C=C\c2ccc(OC)cc2)CC1 as the compound, how does the Potency read?
Answer: inconclusive: 20 µM [rising, partial curve, poor fit]

Question: For C=CCn1cnc2c(NCc3ccccc3)ncnc21, which activity change, negative = inhibition is on record?
Answer: inconclusive: 4.59%

Question: Which activity change, negative = inhibition does the source give for COc1cc(C2N(c3ccccc3)CCN2c2ccccc2)ccc1OC(C)=O here?
Answer: inconclusive: -12.5%

Question: With COc1ccc(NC(=O)Cc2nn(C)c(=O)c3ccccc23)c2ncccc12 as the compound, how does the Potency read?
Answer: inconclusive: 1.26 µM [rising, full curve, poor fit]

Question: For C[C@@H](C(=O)Nc1ccc2ccccc2c1)[C@@H]1C[C@@]1(C)[C@@H](NC(=O)c1cnccn1)c1ccccc1, which activity change, negative = inhibition is on record?
Answer: inconclusive: -16%

Question: With Cc1cccc(N(CC(=O)NC2CCCCC2)C(=O)c2c(C)noc2C)c1 as the compound, how does the activity change, negative = inhibition read?
Answer: inactive

Question: With COC(=O)c1ccc(CSc2ncnc3sc(C)c(C)c23)o1 as the compound, how does the Potency read?
Answer: inconclusive: 5.01 µM [rising, single point]

Question: With CCN(CC)c1ccc(-c2c(C#N)c(N)nc(OC)c2C#N)cc1 as the compound, how does the Potency read?
Answer: inconclusive: 12.6 µM [rising, partial curve]

Question: For FC(F)(F)c1nnc2sc(-c3ccncc3)nn12, which activity change, negative = inhibition is on record?
Answer: inconclusive: 25.2%

Question: For COc1ccc(NC(=O)C2CCCN(c3c4c(nc5ncnn35)CCC4)C2)cc1 (stereo unspecified), which activity change, negative = inhibition is on record?
Answer: inactive

Question: With C=C1C(=O)C=C2CN(C(=O)c3ccccc3)[C@@](Cc3ccc(F)cc3)(C(=O)OC)[C@@H]12 as the compound, how does the Potency read?
Answer: inconclusive: 0.501 µM [falling, partial curve]

Question: With COc1ccc(NC(=O)C2CC(c3cc(OC)c(OC)c(OC)c3)=NO2)cc1OC (stereo unspecified) as the compound, how does the Potency read?
Answer: inconclusive: 10 µM [rising, single point]

Question: With Cc1ccccc1-c1cc(-c2ccccc2O)n[nH]1 as the compound, how does the activity change, negative = inhibition read?
Answer: inactive

Question: Which activity change, negative = inhibition does the source give for CN1CCN(Cc2nc3c(c(=O)n(C)c(=O)n3C)n2Cc2ccccc2Cl)CC1 here?
Answer: inactive

Question: For CCCCCn1c(CNC(C)=O)nc2ccccc21, which activity change, negative = inhibition is on record?
Answer: inactive

Question: Which activity change, negative = inhibition does the source give for Cc1cc(=O)[nH]c(SCCOc2ccc(OC(C)C)cc2)n1 here?
Answer: inactive

Question: Which Potency does the source give for CN1CC=C2C(C#N)=C(N)C(C#N)(C#N)C(c3cccc(Cl)c3Cl)C2C1 (stereo unspecified) here?
Answer: inconclusive: 10 µM [rising, partial curve]

Question: With CCOC(=O)c1csc(NC(=O)c2cc(OC)c(OC)c(OC)c2)n1 as the compound, how does the Potency read?
Answer: inconclusive: 10 µM [rising, single point]

Question: With COc1ccc(N2CC(C)Cn3c2nc2c3c(=O)n(CCN3CCOCC3)c(=O)n2C)cc1 (stereo unspecified) as the compound, how does the Potency read?
Answer: inconclusive: 12.6 µM [rising, partial curve]

Question: For O=C(COc1ccccc1)Nc1cccc(-c2nnc(-c3ccccc3)o2)c1, which activity change, negative = inhibition is on record?
Answer: inactive

Question: Which activity change, negative = inhibition does the source give for O=C(CCn1c(=O)c2ccccc2n(CC(=O)NCCC2=CCCCC2)c1=O)NCc1ccco1 here?
Answer: inconclusive: 14.7%

Question: With Cc1nn(C(=O)c2cccnc2)c(C)c1C as the compound, how does the activity change, negative = inhibition read?
Answer: inactive

Question: Which activity change, negative = inhibition does the source give for CCOCCCNC(=O)Cc1ccc(OC)c(OC)c1 here?
Answer: inconclusive: 16.8%

Question: For Cc1ccc2[nH]c(=S)cc(C)c2c1, which activity change, negative = inhibition is on record?
Answer: inconclusive: 21.6%

Question: Which activity change, negative = inhibition does the source give for CCOC(=O)c1c(NC(=O)CSc2nnnn2C)sc(C)c1-c1ccc(C)cc1 here?
Answer: inconclusive: 28.6%

Question: With CCOC(=O)c1sc(NC(=O)c2ccco2)nc1C as the compound, how does the activity change, negative = inhibition read?
Answer: inactive

Question: Which Potency does the source give for Cc1cc(Cl)ccc1OCc1nc(-c2ccc(O)cc2)n[nH]1 here?
Answer: inconclusive: 25.1 µM [rising, single point]

Question: With O=C(Cn1cnc2ccccc2c1=O)NCCC(=O)N1CCN(Cc2ccccc2)CC1 as the compound, how does the activity change, negative = inhibition read?
Answer: inconclusive: -8.01%

Question: Which activity change, negative = inhibition does the source give for CCc1c(C)nc2[nH]nc(-c3ccccc3)n2c1=O here?
Answer: inactive

Question: For O=C(O)c1cccc(S(=O)(=O)NCC2CCCO2)c1 (stereo unspecified), which Potency is on record?
Answer: inconclusive: 31.6 µM [rising, partial curve, poor fit]

Question: Which activity change, negative = inhibition does the source give for Cc1nnsc1NC(=O)OCC(C)C here?
Answer: inconclusive: -27.2%

Question: For Cc1cc(C)n(C(=O)C(C)N2C(=O)c3ccccc3C2=O)n1 (stereo unspecified), which activity change, negative = inhibition is on record?
Answer: inconclusive: -6%

Question: With CCc1ccccc1N1CSC2=C(C#N)C(c3cc(OC)c(OC)cc3OC)CC(=O)N2C1 (stereo unspecified) as the compound, how does the Potency read?
Answer: inconclusive: 15.8 µM [rising, single point]

Question: For Cc1cccc(S(=O)(=O)c2c(N)n(Cc3ccco3)c3nc4ccccc4nc23)c1, which activity change, negative = inhibition is on record?
Answer: inactive

Question: For N#Cc1cc2c(nc1SCc1cccnc1)CCC2, which activity change, negative = inhibition is on record?
Answer: inconclusive: 26.8%

Question: Which activity change, negative = inhibition does the source give for Cn1c(CCC(=O)Nc2ccc(N3CCOCC3)cc2)nc(=O)c2ccccc21 here?
Answer: inactive

Question: With COc1cccc2oc(-c3ccc(O)cc3)cc(=O)c12 as the compound, how does the Potency read?
Answer: inconclusive: 15.8 µM [rising, partial curve, poor fit]

Question: With Cc1cc(-c2ccccc2)c2nncn2n1 as the compound, how does the activity change, negative = inhibition read?
Answer: inconclusive: 18.7% [at 7.6 µM]

Question: For CCc1cccc2c(C#N)cn(CCOc3ccccc3OC)c12, which activity change, negative = inhibition is on record?
Answer: inconclusive: 16.7%

Question: With O=C(O)[C@@H](O)[C@@H](O)[C@@H](O)[C@@H](O)c1nc2ccccc2s1 as the compound, how does the activity change, negative = inhibition read?
Answer: inactive: -12.3% [at 7.6 µM]

Question: With CC(C)(C)c1cc(C(F)(F)F)nc(SCCCNC(=O)c2ccco2)n1 as the compound, how does the Potency read?
Answer: inconclusive: 12.6 µM [rising, partial curve]

Question: For CCOc1ccccc1NC(=O)c1cc(Cl)ccc1NC(=O)c1ccco1, which activity change, negative = inhibition is on record?
Answer: inactive

Question: With O=c1c(CCc2ccccc2)nc2cncnc2n1-c1ccccc1 as the compound, how does the activity change, negative = inhibition read?
Answer: inconclusive: 22.6%

Question: For c1cc(NC2CC2)nc(-c2ccoc2)n1, which activity change, negative = inhibition is on record?
Answer: inactive

Question: With CN(Cc1ccccc1)C(=O)N[C@@H](Cc1ccccc1)C(=O)O as the compound, how does the activity change, negative = inhibition read?
Answer: inactive

Question: For CCCCOc1ccc(S(=O)(=O)n2c(C)nc3ccccc32)cc1, which activity change, negative = inhibition is on record?
Answer: inconclusive: -20.4% [at 7.6 µM]

Question: Which activity change, negative = inhibition does the source give for Cc1n[nH]c(C)c1S(=O)(=O)N1CCCC(C(=O)Nc2ccc3c(c2)OCCO3)C1 (stereo unspecified) here?
Answer: inactive

Question: With CN(C)c1ncc2nc(-c3cc(F)cc(F)c3)c(=O)n(C)c2n1 as the compound, how does the Potency read?
Answer: inconclusive: 3.98 µM [rising, partial curve]

Question: With CC(C)CCNC(=O)C(c1ccco1)N(CC1CCCO1)C(=O)Cn1nnc2ccccc21 (stereo unspecified) as the compound, how does the activity change, negative = inhibition read?
Answer: inactive

Question: With Cc1ccc2nc3c(cc(C(=O)NCC4CCCO4)c(=N)n3CCCOC(C)C)c(=O)n2c1 (stereo unspecified) as the compound, how does the Potency read?
Answer: active: 10 µM

Question: Which Potency does the source give for COc1ccc(-n2c(=O)c(CCc3ccccc3)nc3cnc(N4CCN(C)CC4)nc32)cc1 here?
Answer: inconclusive: 20 µM [rising, single point]

Question: For O=C1CC(c2ccc(F)cc2)Sc2ccccc2N1 (stereo unspecified), which activity change, negative = inhibition is on record?
Answer: inconclusive: 2.44%

Question: Which Potency does the source give for CN(C)CCCN1c2ccc3ccccc3c2Sc2cccc(Cl)c21 here?
Answer: inconclusive: 5.01 µM [rising, single point]

Question: Which Potency does the source give for CCOc1cc(-c2nc(-c3ccc(OC)cc3)no2)cc(OCC)c1OCC here?
Answer: inconclusive: 3.98 µM [rising, partial curve]

Question: Which activity change, negative = inhibition does the source give for O=S(=O)(Nc1nc2ccccc2nc1NCC1CCCO1)c1cccs1 (stereo unspecified) here?
Answer: inactive

Question: For Cc1ccc(C)c(C(=O)NC2CC(C)(C)NC(C)(C)C2)c1, which activity change, negative = inhibition is on record?
Answer: inactive

Question: For CCN=C1SC(C(N)=O)CC(=O)N1CC (stereo unspecified), which activity change, negative = inhibition is on record?
Answer: inactive

Question: With CCc1nn2cc(-c3ccccc3)nc2s1 as the compound, how does the activity change, negative = inhibition read?
Answer: inactive

Question: With CCn1c2ccccc2c2nnc(SCCCn3c(=O)[nH]c4ccccc43)nc21 as the compound, how does the Potency read?
Answer: inconclusive: 0.398 µM [rising, partial curve]

Question: For COc1ccc(C2CC(=O)c3cnc(N)nc3C2)c(OC)c1 (stereo unspecified), which Potency is on record?
Answer: inconclusive: 6.31 µM [rising, partial curve]

Question: With COc1ccc(S(=O)(=O)C(C#N)c2nc3ccccc3nc2N2CCCC(C)C2)cc1 (stereo unspecified) as the compound, how does the Potency read?
Answer: inconclusive: 10 µM [rising, partial curve]

Question: Which Potency does the source give for CCN1CCCC1CNC(=O)c1cn(C)c2ccc(S(=O)(=O)N3CCCCCC3)cc2c1=O (stereo unspecified) here?
Answer: inconclusive: 10 µM [falling, partial curve]

Question: For COc1cccc(-n2c(SC3CCOC3=O)nc3ccccc3c2=O)c1 (stereo unspecified), which Potency is on record?
Answer: inconclusive: 5.01 µM [rising, partial curve]

Question: Which activity change, negative = inhibition does the source give for CCCCC(=O)N1CC2(C)CN(C(=O)CCCC)CC(C)(C1)C2=O here?
Answer: inconclusive: -3.52%

Question: Which activity change, negative = inhibition does the source give for CCC(C)(C)C(=O)O[C@@H]1C[C@@H](C)C=C2C=C[C@H](C)[C@H](CC[C@@H]3C[C@@H](O)CC(=O)O3)[C@H]21 here?
Answer: inactive

Question: With COc1ccc(-c2nc(C#N)c(N3CCCCCC3)o2)cc1OC as the compound, how does the Potency read?
Answer: active: 1.26 µM

Question: For O=C(NC1CCCCCC1)c1cc(S(=O)(=O)N2CCOCC2)ccc1N1CCCCC1, which activity change, negative = inhibition is on record?
Answer: inactive

Question: Which Potency does the source give for COc1cccc(Cn2c(=O)c(-c3ccccc3)nc3cnc(N4CCN(C)CC4)nc32)c1 here?
Answer: inconclusive: 1 µM [rising, partial curve]

Question: Which activity change, negative = inhibition does the source give for CCOc1ccc(C(=O)Nc2cc(C)c3c(=O)oc4ccccc4c3n2)cc1 here?
Answer: inconclusive: -8.06%

Question: For N#C/C(=C\Nc1ccc2c(c1)OCCO2)c1nc2ccccc2[nH]1, which Potency is on record?
Answer: inconclusive: 3.16 µM [rising, single point]
